For one molecule, IC50 of neutralisation of H7N9 A/Anhui/1/2013 (H7-AH/13), microneutralisation results are on record in PMC6465249.

In the assay the target is H7-AH/13 HA (hemagglutinin of H7N9 A/Anhui/1/2013) (influenza A virus H7N9 A/Anhui/1/2013).

B1: AF4H1K1 IgG (antibody, V domains shown)
VH: QVQLVESGGGVVQPGTSLRLSCEASGFTSSAYAMHWVRQAPGKGLEWVAVITFDGGYQYYADSVKGRFTISRDISRNTLHLHMNSLRAEDTAVYYCARDPLTKLLPFDWVSGGYFDYWGQGTLVTVSS
VL: DIVMTQSPGTLSLSPGERATLS[not shown - about 80 residues]FGQGTKVEIK
B1 gave an IC50 of neutralisation of H7N9 A/Anhui/1/2013 (H7-AH/13), microneutralisation greater than 200 µg/mL.
